Consider six compounds from the supplement of paper PMC4604168 (melanoma cell lines).

What all share (experiment): cell count relative to DMSO control; melanoma cells; higher = more viable cells
What all share (details): library dose: low library concentration; 72 h

Assay [1] relates to MZ2-MEL.
Assay [2] deals with MeWo.
For assay [3], the system named is RPMI7951.
For assay [4], the system named is RVH-421.
For assay [5], the system named is SkMel28.
Assay [6] has as its system SkMel2.
Assay [7] concerns SkMel30.
Assay [8] has as its system UACC62.

Some of the results follow. Repeats are few or missing, and single values can be far off.
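Also: cell number obtained by counting DAPI-stained nuclei in high-throughput microscope images with image analysis software, screen run in 1,536-well plates.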

As to `Clc1ccc(Nc2nnc(Cc3ccncc3)c3ccccc23)cc1` [vatalanib] + C[C@]1(c2nc3c(C(N)=O)cccc3[nH]2)CCCN1 [Veliparib] (first compound 2 µM, partner dose 1.4 µM), the cell count in assay [1] came out at 97.4%; in assay [2], 78.8%; in assay [3], 88.9%; in assay [4], 101%; in assay [5] it was 92.4%; in assay [6], 96.8%. The cell count in assay [7] worked out at 97.1%; in assay [8] it was 93.2%.

On to `OCc1c[nH]c2ccccc12` [Indole-3-carbinol] + Cn1nnc2c(C(N)=O)ncn2c1=O [temozolomide] (first compound 0.8 µM, partner dose 2 µM), for which the cell count in assay [1] amounted to 97.3%; in assay [2], 97.3%; in assay [3], 98.2%; in assay [4] it was 94.5%; in assay [5], 63.8%; in assay [6], 104%. Besides, the cell count in assay [7] is 81.6%; in assay [8] it was 83.2%.

In the case of `OCc1c[nH]c2ccccc12` [Indole-3-carbinol] + COc1ccc(Cl)c(Nc2nc3ccccc3nc2NS(=O)(=O)c2cccc(NC(=O)C(C)(C)N)c2)c1 [XL147] (first compound 0.8 µM, partner dose 0.8 µM), the cell count was 93.9% in assay [1]; 96.4% in assay [2]; 106% in assay [3]; 90.2% in assay [4]; 97.1% in assay [5]; 103% in assay [6]. Besides, the cell count in assay [7] is 80.9%; in assay [8] it was 91.7%.

Take `C#Cc1cccc(Nc2ncnc3cc(OCCOC)c(OCCOC)cc23)c1` [erlotinib] + Cn1nnc2c(C(N)=O)ncn2c1=O [temozolomide] (first compound 0.8 µM, partner dose 2 µM): the cell count was 96.3% in assay [1]; 96.6% in assay [2]; 90.4% in assay [3]; 87.9% in assay [4]; 77.9% in assay [5]; 103% in assay [6]. Moreover, the cell count in assay [7] worked out at 79%; in assay [8], 87.1%.

Turning to `Clc1ccc(Nc2nnc(Cc3ccncc3)c3ccccc23)cc1` [vatalanib] + Cn1nnc2c(C(N)=O)ncn2c1=O [temozolomide] (first compound 2 µM, partner dose 2 µM), the cell count in assay [1] was found to be 95.5%; in assay [2] it was 70.4%; in assay [3] it was 89.1%; in assay [4], 80%; in assay [5], 78%; in assay [6] it was 98.2%. In addition, the cell count was found to be 91% in assay [7] and 92.1% in assay [8].

Turning to `Cn1c(Nc2ccc(C(F)(F)F)cc2)nc2cc(Oc3ccnc(-c4ncc(C(F)(F)F)[nH]4)c3)ccc21` + Cn1nnc2c(C(N)=O)ncn2c1=O [temozolomide] (first compound 0.08 µM, partner dose 2 µM), the cell count in assay [1] was 86.9%; in assay [2] it was 72%; in assay [3], 51.9%; in assay [4] it was 58.5%; in assay [5], 43.3%; in assay [6], 63.7%. Also, the cell count in assay [7] is 53.4%; in assay [8], 47.3%.
